Laboratory results: article PMC3045339
Results are given in words; binding and its absence hold for the method and conditions named. Binding seen in cells or lysates may run through a third protein. Some entries that bind do so weakly or less than the wild type. For some assays here: Tags and fused reporters may be left off the sequences shown. Values belong to the molecule of their own block, whether it stands above or below them.

Sequences of proteins named here, by UniProt entry; tags and fusion partners are left off. Residues count along the entry.
UniProt P19490, residues 19-907: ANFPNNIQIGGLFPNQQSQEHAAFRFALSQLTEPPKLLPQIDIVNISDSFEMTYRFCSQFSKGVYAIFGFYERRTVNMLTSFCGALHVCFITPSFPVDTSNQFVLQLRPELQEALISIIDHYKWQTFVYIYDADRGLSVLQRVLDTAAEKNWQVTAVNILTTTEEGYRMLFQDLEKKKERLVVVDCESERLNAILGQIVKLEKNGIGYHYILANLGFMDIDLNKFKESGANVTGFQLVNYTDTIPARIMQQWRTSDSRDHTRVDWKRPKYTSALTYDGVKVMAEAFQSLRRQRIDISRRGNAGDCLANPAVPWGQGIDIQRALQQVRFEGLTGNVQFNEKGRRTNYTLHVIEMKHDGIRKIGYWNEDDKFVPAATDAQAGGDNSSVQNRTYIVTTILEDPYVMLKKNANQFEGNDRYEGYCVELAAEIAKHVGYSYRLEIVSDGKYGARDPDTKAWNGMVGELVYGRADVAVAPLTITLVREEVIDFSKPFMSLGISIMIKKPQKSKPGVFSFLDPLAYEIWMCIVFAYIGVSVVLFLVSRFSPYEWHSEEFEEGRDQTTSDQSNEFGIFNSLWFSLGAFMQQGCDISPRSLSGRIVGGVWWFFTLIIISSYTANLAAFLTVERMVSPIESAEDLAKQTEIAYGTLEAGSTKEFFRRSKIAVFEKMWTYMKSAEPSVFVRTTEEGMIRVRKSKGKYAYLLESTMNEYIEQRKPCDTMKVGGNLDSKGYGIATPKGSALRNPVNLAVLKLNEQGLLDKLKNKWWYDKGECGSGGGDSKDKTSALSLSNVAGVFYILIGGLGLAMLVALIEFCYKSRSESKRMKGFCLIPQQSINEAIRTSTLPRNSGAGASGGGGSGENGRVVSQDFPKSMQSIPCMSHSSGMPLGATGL
UniProt Q00960, residues 27-1482: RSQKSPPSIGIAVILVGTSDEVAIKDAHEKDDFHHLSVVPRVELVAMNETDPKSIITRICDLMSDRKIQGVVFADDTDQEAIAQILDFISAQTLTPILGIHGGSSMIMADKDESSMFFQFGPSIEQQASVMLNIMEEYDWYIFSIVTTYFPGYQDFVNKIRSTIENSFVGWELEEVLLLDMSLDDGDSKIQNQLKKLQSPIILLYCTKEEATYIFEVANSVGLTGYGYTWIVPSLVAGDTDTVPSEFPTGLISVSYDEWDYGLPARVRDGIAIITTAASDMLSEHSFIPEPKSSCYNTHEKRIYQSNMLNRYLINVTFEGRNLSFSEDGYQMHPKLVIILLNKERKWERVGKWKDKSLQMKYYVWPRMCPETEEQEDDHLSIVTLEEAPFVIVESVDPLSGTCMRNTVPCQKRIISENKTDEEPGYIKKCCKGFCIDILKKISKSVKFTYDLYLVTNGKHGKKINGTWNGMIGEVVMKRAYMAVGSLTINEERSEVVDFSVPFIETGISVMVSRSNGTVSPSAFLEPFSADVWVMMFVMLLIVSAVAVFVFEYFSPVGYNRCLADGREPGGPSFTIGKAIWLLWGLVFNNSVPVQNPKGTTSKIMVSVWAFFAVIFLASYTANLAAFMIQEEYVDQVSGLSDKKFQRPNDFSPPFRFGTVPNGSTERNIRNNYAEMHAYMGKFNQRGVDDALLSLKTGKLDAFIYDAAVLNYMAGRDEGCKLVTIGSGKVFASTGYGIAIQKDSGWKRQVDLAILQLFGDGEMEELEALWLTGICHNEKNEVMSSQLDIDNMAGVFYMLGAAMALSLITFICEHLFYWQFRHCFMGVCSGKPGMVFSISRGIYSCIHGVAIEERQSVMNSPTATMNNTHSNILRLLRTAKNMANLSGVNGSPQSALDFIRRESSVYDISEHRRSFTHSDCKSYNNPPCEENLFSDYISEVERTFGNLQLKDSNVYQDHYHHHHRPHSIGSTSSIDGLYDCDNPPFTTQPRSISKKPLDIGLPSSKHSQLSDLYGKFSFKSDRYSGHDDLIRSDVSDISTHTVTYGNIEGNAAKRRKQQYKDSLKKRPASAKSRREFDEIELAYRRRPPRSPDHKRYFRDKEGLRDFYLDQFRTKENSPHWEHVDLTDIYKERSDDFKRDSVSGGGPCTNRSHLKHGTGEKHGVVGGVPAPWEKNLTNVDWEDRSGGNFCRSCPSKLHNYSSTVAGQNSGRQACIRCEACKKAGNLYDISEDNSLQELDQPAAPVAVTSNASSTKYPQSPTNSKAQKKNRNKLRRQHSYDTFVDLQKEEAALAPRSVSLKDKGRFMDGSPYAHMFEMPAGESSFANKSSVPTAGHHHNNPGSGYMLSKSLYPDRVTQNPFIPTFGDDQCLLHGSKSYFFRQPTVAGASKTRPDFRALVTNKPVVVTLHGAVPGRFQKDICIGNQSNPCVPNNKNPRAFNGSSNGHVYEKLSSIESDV
UniProt Q6Y1S1: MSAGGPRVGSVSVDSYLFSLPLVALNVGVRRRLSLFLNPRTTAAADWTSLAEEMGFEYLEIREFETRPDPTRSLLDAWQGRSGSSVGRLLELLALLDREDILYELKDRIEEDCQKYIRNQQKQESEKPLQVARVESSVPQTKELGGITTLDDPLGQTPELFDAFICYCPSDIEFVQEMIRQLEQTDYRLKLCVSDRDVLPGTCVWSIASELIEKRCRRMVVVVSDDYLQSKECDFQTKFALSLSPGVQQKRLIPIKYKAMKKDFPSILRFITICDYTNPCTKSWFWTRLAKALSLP

Key:
[1] = target: T1, interleukin-1 receptor type I (rat (endogenous in hippocampus)) (UniProt Q02955); test: co-IP; protein homogenates (200 ug) from rat hippocampi immunoprecipitated with antibodies specific for IL-1RI, GluA1 or GluN2B; western blot of the immunocomplex
T1 sequence: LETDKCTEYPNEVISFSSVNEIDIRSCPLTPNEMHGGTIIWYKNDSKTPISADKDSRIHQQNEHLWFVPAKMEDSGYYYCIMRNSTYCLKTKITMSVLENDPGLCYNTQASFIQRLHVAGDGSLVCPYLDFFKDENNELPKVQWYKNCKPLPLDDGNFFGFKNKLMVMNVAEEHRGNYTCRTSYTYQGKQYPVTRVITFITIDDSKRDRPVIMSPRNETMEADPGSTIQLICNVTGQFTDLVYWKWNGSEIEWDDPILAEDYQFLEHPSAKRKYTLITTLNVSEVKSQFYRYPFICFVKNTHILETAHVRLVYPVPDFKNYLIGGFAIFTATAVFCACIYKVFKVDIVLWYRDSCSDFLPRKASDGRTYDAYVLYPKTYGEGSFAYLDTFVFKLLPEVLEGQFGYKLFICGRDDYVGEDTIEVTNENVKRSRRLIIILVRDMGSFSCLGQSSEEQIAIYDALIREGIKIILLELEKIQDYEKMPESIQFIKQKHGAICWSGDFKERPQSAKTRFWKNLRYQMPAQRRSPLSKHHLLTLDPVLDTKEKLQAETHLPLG

[2] = target: T1, interleukin-1 receptor type I (rat (endogenous in hippocampus)); test: co-IP; IL-1RI immunoprecipitated from total lysates of primary hippocampal neurons treated or not with NMDA (50 uM, 10 min) or IL-1beta (0.05 ng/ml, 30 min); western blot for GluN2B
[3] = target: T2, fusion protein of the cytoplasmic domain of IL-1RI with GST (UniProt P14778); test: pull-down; GST fusion proteins on affinity beads incubated with total homogenate from rat hippocampus (text: lysates from rat hippocampal neurons), extensively washed; immunoblot with GluN2B antibody; only the target purified
T2 sequence: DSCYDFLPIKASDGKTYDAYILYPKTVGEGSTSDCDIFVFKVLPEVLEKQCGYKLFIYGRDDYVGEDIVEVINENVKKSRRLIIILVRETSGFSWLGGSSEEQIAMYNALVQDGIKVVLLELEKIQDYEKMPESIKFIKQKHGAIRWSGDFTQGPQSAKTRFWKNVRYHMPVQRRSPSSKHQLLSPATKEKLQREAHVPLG

[4] = target: GluA1 subunit of AMPA receptors (rat (endogenous in hippocampus)) (UniProt P19490); test: co-IP; protein homogenates (200 ug) from rat hippocampi immunoprecipitated with antibodies specific for IL-1RI, GluA1 or GluN2B; western blot of the immunocomplex
[5] = target: GluN2B subunit of the NMDA receptor (rat (endogenous in hippocampus)) (UniProt Q00960); test: as above

- binding [1]: binds
- binding [2]: binds
- binding [3]: binds
Molecule: GluN2B subunit of the NMDA receptor (from UniProt Q00960 27-1482)

- binding [4]: no binding
- binding [5]: binds
- binding [1]: binds
Molecule: myeloid differentiation primary response protein 88 (from UniProt Q6Y1S1 1-296)

- binding [4]: no binding
- binding [5]: binds
- binding [1]: binds
B1: IL-1R accessory protein (protein, UniProt Q63621 21-570)
chain: SERCDDWGLDTMRQIQVFEDEPARIKCPLFEHFLKYNYSTAHSSGLTLIWYWTRQDRDLEEPINFRLPENRISKEKDVLWFRPTLLNDTGNYTCMLRNTTYCSKVAFPLEVVQKDSCFNSPMRLPVHRLYIEQGIHNITCPNVDGYFPSSVKPSVTWYKGCTEIVNFHNVQPKGMNLSFFIPLVSNNGNYTCVVTYLENGRLFHLTRTMTVKVVGSPKDAVPPHIYSPNDRVVYEKEPGEELVIPCKVYFSFIMDSHNEIWWTIDGKKPDDVPVDITIIESVSYSSTEDETRTQILSIKKVTPEDLKRNYVCHARNAEGEAEQAAKVKQKVIPPRYTVELACGFGATVFLVVVLIVVYHVYWLEMVLFYRAHFGTDETILDGKEYDIYVSYARNAEEEEFVLLTLRGVLENEFGYKLCIFDRDSFPGGIVTDETLSFIQKSRRLLVVLSPNYVLQGTQALLELKAGLENMASRGNINVILVQYKAVKDLKVKELKRAKSVLTVIKWKGEKSKYPQGRFWKQLQVAMPVKKSPRWSSSDKQGLSYSSLKNV

- binding [4]: no binding
- binding [5]: binds
B2: interleukin-1 receptor type I (receptor, UniProt Q02955 20-576)
chain: T1 sequence
